About 540 (0.36%) of roughly 150,000 compounds showed an effect of 50% or more. Some of the results follow.
Tested on: Plasmodium falciparum
Assay: Primary screen in NF54 nanoGlo assay, in single point, at 2uM, 72h; a lower Z score goes with more inhibition
Assay type: functional, Erythrocyte
Settings: timepoint 72 hour

Structure (SMILES) | % Inhibition [%] | Z score
C#CCN(CCOC)Cc1cccc(C)n1 | -4 | 0.84
Cc1nc(C)c(COC(=O)C[C@@H](CN)CC(C)C)s1 | -34 | 3.97
Cc1cccn2c(=O)c(C(=O)NCc3cc(C4CC4)ccc3F)cnc12 | 2 | -0.17
CN1CCN(C)[C@@H](CNC(=O)NC(C)(C)CC(C)(C)C)C1 | 30 | -3.35
CC(C)CNCc1cccc(Br)c1 | 32 | -4.33
CC(C)c1ocnc1C(=O)OCc1ccc2[nH]nnc2c1 | 1 | -0.14
CC1=NN(C2CCS(=O)(=O)C2)C(=O)C1C(=O)Nc1ccccc1 (stereo not given) | -2 | 0.43
COc1ccc(-n2ccnc2-c2cc(C#CCO)cs2)cc1 | -11 | 1.35
Cc1c[nH]c(C(=O)N[C@H]2CCN(Cc3cscn3)C[C@@H]2O)n1 | 12 | -2.22
Nc1nc(-c2ccccc2)[n+](-c2ccccc2)s1 | -10 | 1.48
CC1CCC(NC(=O)c2cnn[nH]2)CC1 (stereo not given) | -9 | 1.8
O=C1C2CCCCC2C(=O)N1CN1CCN(c2ccccn2)CC1 (stereo not given) | -10 | 1.36
CC(=O)N1CC[C@H](CN(C)S(=O)(=O)c2cc(F)c(F)cc2F)C1 | 12 | -1.86
Cc1cccc(C(=O)N2CCC[C@H](c3cc(N4CCOCC4)ncn3)C2)c1 | -1 | 0.09
COc1ccc(OC)c2c1cc(C(=O)Nc1cccnc1)n2C | -16 | 2.02
COCCC1(CNC(=O)c2cc(-n3ccnc3C)ccn2)CCCCC1 | -2 | 0.2
c1ccc(-n2ccc(Cn3ccnn3)n2)cc1 | -9 | 1.33
Cc1ccc(CNC(=O)c2ccon2)c(-n2cc(Cl)cn2)n1 | -2 | 0.16
Oc1ccccc1CCN[C@H]1CCc2ccc(F)cc21 | 98 | -18.88
CN1CC[C@H](CNC(=O)Nc2ccc3c(c2)COC3)c2ccccc21 | 5 | -0.64
O=C1CC[C@H](C(=O)Nc2ccccc2Nc2c(F)cccc2F)N1 | -10 | 1.56
CC[C@H](O)CNCc1cccc(OC)c1F | -1 | 0.26
O=C(NCCc1ccccn1)c1cc2n(n1)CCN(Cc1c(F)cccc1Cl)C2=O | 14 | -1.72
CCN1C[C@@H](CN(C)c2nc(C)nc3c2c(C)nn3C)CC1=O | -2 | 0.24
Cc1cncc(C(=O)NCc2ccnc(OC3CCC3)c2)c1 | -6 | 0.73
COC(=O)c1ccccc1CN(Cc1ccccc1)Cc1cccn1Cc1ccccc1C | -10 | 1.39
O=c1c(-c2nc(-c3ccc(F)cc3)no2)c[nH]c2ccccc12 | -7 | 1.05
CCCCNCCOc1ccc(Cl)c(Cl)c1 | -18 | 2.36

Structure (SMILES) | % Inhibition [%] | Z score
Cc1cc(C)n(CCC(=O)N2C[C@H]3C[C@H](C2)[C@H]2CCCC(=O)N2C3)n1 | -2 | 0.48
O=C(NCc1ccccc1)c1cc2n(n1)CCN(Cc1cccc(C(F)(F)F)c1)C2=O | -17 | 1.68
Fc1cc(Br)cc2c(NCCc3nnc4n3CCC4)cc(C(F)(F)F)nc12 | -12 | 1.62
Cc1ccc(C(=O)N(Cc2nn(C)c3c2CN(S(=O)(=O)c2ccccc2F)CC3)c2ccccc2)cc1 | -17 | 1.5
C[C@@H](CNS(=O)(=O)c1cccs1)c1nc2ccccc2o1 | -8 | 0.96
O=C(N[C@H]1CO[C@H]2[C@@H]1OC[C@@H]2Nc1nccc(-c2ccc(-c3ccccc3)cc2)n1)c1ccc(C(F)(F)F)cc1 | 7 | -0.84
CCNCC#CCOc1ccc(C)cc1 | -9 | 0.99
NS(=O)(=O)Cc1cc(Cl)ccc1F | -6 | 0.86
CC[C@H]1OCC[C@@H]1NC(=O)c1ccsn1 | 2 | -0.33
NC(=O)C1CCCCC1NC(=O)CC1(N2CCOCC2)CCCC1 (stereo not given) | 30 | -3.34
CN(Cc1ncc[nH]1)C(=O)c1cccc(-c2cc(N3CCCC3)nc(N)n2)c1 | -2 | 0.39
Cc1nnc(-c2ccccc2/C=C/C2CCCCC2)o1 | -2 | 0.39
Cn1ccnc1NC(=O)c1ccccc1-c1nccn1C | 5 | -0.51
CN(Cc1ccccc1)c1cnn(CC[C@@H](O)c2ccccc2)c(=O)c1 | -4 | 0.71
CC(C)(C)OC(=O)N1C2CCC1CN(c1ccccn1)CC2 (stereo not given) | -6 | 0.79
CCOc1ccc(NC(=O)c2ccc(N3CC4CC(C3)c3cccc(=O)n3C4)c(NC(=O)CCN3CCOCC3)c2)cc1 (stereo not given) | 11 | -1.25
Cc1ccc(C(=O)N[C@H](c2cccnc2)C(C)C)n1C(F)F | -9 | 1.03
O=C(c1ccccc1C(F)(F)F)N1CC2(CCOC2)C1 | 5 | -0.56
N#CCCCS(=O)(=O)Cc1ccc(Br)c(Cl)c1 | -6 | 0.56
Cc1cc2c(N3CCC(N[C@@H](C)c4n[nH]c(=O)[nH]4)CC3)ncnc2s1 | -8 | 1.35
CC(C)(C)OC(=O)N1CC[C@H](NCc2cc[nH]n2)C1(C)C | 7 | -1.32
O=C(NCc1cccc(O)c1)c1cccc(-n2cccn2)n1 | 7 | -0.85
COc1ccc(NC(=O)[C@H]2CC23CCN(Cc2cccc4ncccc24)CC3)cc1Cl | -15 | 1.66
CCOc1nc(-c2cccs2)n(-c2ccc(NC(=O)CC(C)C)cc2)n1 | -3 | 0.4
COc1cccc(N2CCN(C(=O)c3cn4cc(-c5cccc(Cl)c5)ccc4n3)CC2)c1 | -8 | 1.19
Cn1[nH]c2ncc(Br)cc2c1=O | -5 | 0.99
Cc1nn(C)c2nc(N3CCC[C@H](C#N)C3)sc12 | -7 | 0.74

Reference: ChEMBL document CHEMBL4888484, “Replenishing the malaria drug discovery pipeline: Screening and hit evaluation of the MMV Hit Generation Library 1 (HGL1) against asexual blood stage Plasmodium falciparum ,using a nano luciferase reporter read-out” (2022)
